From the supplement of paper PMC10986608
The list shows a part of the results. Most values come without repeats; read them as rough.

tested on: Candida albicans DPL-15; assay: growth (OD600) after compound treatment (apparently relative to screen median) (relative growth (fraction; screen median 1.02)); DPL-15 is a caspofungin-resistant clinical isolate; higher = more fungal growth (less antifungal activity); conditions: 25 µM; RPMI 1640; 48 h; 30 °C

| Structure (SMILES) | growth |
| --- | --- |
| CC(C)CCOS(=O)(=O)NCC(F)(F)F | 1.12 |
| COC(=O)C/C=C/[C@@H](C)[C@H](NC(=O)[C@@H](N)C(C)C)c1ccccc1 | 1.03 |
| CCN(CC)C(=O)c1c(O)cc(O)cc1CC(=O)c1ccccc1 | 1.03 |
| O=C1CC2(CCCCC2)CNC(=O)c2cccc(c2)-c2[nH]ncc2COC[C@H](c2ccccc2)N1 | 1.04 |
| COC(=O)C1=C(C)N(Cc2cccc(C(F)(F)F)c2)C(NCCc2cccs2)=NC1c1ccc(Cl)cc1 (stereo not drawn) | 1.01 |
| C[C@@H]1/C=C/CC(=O)OCCCC(=O)N[C@@H](Cc2ccc(O)cc2)C(=O)N[C@@H]1/C=C/c1ccccc1 | 0.718 |
| Cc1cc(C)cc(-n2nc(C)c3c2C(=O)NC3c2ccc3c(c2)OCO3)c1 (stereo not drawn) | 0.963 |
| CC(C)C1=NCCNC2=C1C(c1ccc(F)cc1)NC2=O (stereo not drawn) | 0.994 |
| CC(=O)C1=C(C)N(Cc2ccc(Cl)cc2)C(=S)NC1c1ccccc1Cl (stereo not drawn) | 0.829 |
| C=Cc1cc(O[Si](C)(C)C(C)(C)C)ccc1[C@@H]1CCC2(OCCO2)[C@H]1O | 0.866 |
| CC#CCOc1c(-c2ccccc2)oc2cccc(OC)c2c1=O | 0.82 |
| CCOC(=O)C(c1ccc(OC)c(OC)c1)C1c2ccccc2C=C(C)N1C(=O)OC (stereo not drawn) | 0.947 |
| COc1ccc([C@@H]2[C@@H](C(=O)NC3CCCC3)[C@@H](C(=O)NC3CCCC3)[C@@H]2c2ccc(OC)c(OC)c2)cc1OC | 0.891 |
| CCCCC1=CC2=C(OC(C)=O)C(=O)C(C)(OC(=O)C3CCCC3)C(=O)C2=CO1 (stereo not drawn) | 1.12 |
| Cc1cc(O)c2c3c4c(cc(O)c13)O[C@@]1(CCCO1)[C@H](/C=C/CCOC(=O)c1ccccc1)[C@H]4OC2=O | 1 |
| COCCN1C(NCc2ccc(C(F)(F)F)cc2)=NC(c2ccccc2)C(C(=O)OC)=C1C (stereo not drawn) | 1.17 |
| CO[C@H]1CCN(C(=O)c2c(O)cc(O)cc2Nc2cnn(C(C)C)c2)C1 | 1.13 |
| COc1ccc(N2C(=O)c3[nH]nc(CC(C)C)c3C2c2ccccc2OC)cc1 (stereo not drawn) | 0.984 |
| COC(=O)C1=C(C)N(C)C(NCC2CC2)=NC1c1ccc(Cl)cc1 (stereo not drawn) | 0.769 |
| C=CCN1C(=O)C2=C(C(c3ccccc3)=NCCN2)C1c1ccc2c(c1)OCO2 (stereo not drawn) | 0.977 |
| C=CCC1=C(O)[C@](CC=C)(C[C@H](CC=C)C(=C)C)C(=O)C(C(=O)c2ccccc2)=C1O | 1.69 |
| COC(=O)[C@H]1[C@@H](O)[C@@]2(O)c3c(OC)cc(O)cc3O[C@@]2(c2ccc(Br)cc2)[C@@H]1c1ccccc1 | 1.11 |
| COC(=O)[C@@H]1[C@@H](c2ccccc2)[C@]2(c3ccc(OC)cc3)Oc3cc(OC)cc(OC)c3[C@@]23NC(CCl)=N[C@@]13O | 1.09 |
| CC1(C)[C@H]2CC[C@]1(C)[C@H](OS(=O)(=O)NCC(F)(F)F)C2 | 1.37 |

| Structure (SMILES) | growth |
| --- | --- |
| CC1=NCCN(C)C2=C1C(c1ccc(Br)cc1)N(c1ccccc1)C2=O (stereo not drawn) | 0.95 |
| NCC1CCCN(CCc2ccccc2)C1 (stereo not drawn) | 1.07 |
| COC(=O)c1cc2c(c3c4ccccc4n(S(=O)(=O)c4ccc(OC)cc4)c13)C(=O)N(Cc1ccc(C)cc1)C2 | 0.959 |
| CC(=O)C1=C2C=CCCN2C(=O)NC1c1ccc(OC(F)(F)F)c(F)c1 (stereo not drawn) | 0.786 |
| CC(C)C1=NCCNC2=C1C(c1ccccc1)N(c1ccccc1)C2=O (stereo not drawn) | 1.03 |
| C=CCN1C(=O)C2=C(C(c3ccccc3)=NCCN2C)C1c1ccccc1 (stereo not drawn) | 0.959 |
| C=CCN1C(=O)C2=C(C(C)=NCCN2)C1c1ccc(C)cc1 (stereo not drawn) | 0.961 |
| Cc1cc(C)cc(-n2nc(CC(C)C)c3c2C(=O)NC3c2ccccc2)c1 (stereo not drawn) | 0.992 |
| COCOc1cc(C)cc(OCOC)c1C(=O)c1c(C)c(OC)cc(-c2cc(OC)c(C)c(C(=O)c3c(OCOC)cc(C)cc3OCOC)c2OCOC)c1OCOC | 1.11 |
| COC(=O)C1=C(C)N(Cc2ccc(C(F)(F)F)cc2)C(=S)NC1c1cccc(Cl)c1 (stereo not drawn) | 0.826 |
| Cc1cc(O)c2c3c4c(cc(O)c13)O[C@]1(CCCO1)[C@H](/C=C/CCOC(=O)c1ccccc1)[C@H]4OC2=O | 0.972 |
| Cc1ccccc1C1CC(c2ccccc2)=CC1=O (stereo not drawn) | 1.02 |
| COC(=O)C1=C(C)N(CCc2cccs2)C(NCC2CCCCC2)=NC1c1ccc(C)cc1 (stereo not drawn) | 0.94 |
| COc1ccc(-c2cc(N)n(C)n2)cc1 | 1.22 |
| Cc1ccc2c(=O)c3c(O)ccc(CC(=O)O)c3oc2c1C | 1.03 |
| COc1cc(OC)c2c(=O)c3c(CC=C(C)C)ccc(OCC(N)=O)c3oc2c1 | 0.959 |
| COc1ccc(C2=C(C(=O)NCCCOC(C)C)C3C(N2)C(=O)C[C@@H](c2ccccc2)[C@@H]3C)cc1 (stereo partly drawn) | 0.92 |
| COC(=O)C1=C(C)N(CCCOC(C)C)C(NCCc2cccs2)=NC1c1ccccc1 (stereo not drawn) | 1.07 |
| COC(=O)[C@@]1([C@H]2CCC(=O)O2)CC(=O)c2c(O)cc(C)c(-c3c(C)cc(O)c4c3O[C@](C(=O)OC)([C@H]3CCC(=O)O3)CC4=O)c2O1 | 1.5 |
| COC(=O)C1=C(C)N(Cc2ccccc2)C(=O)N[C@H]1c1ccc(Br)cc1 | 0.989 |
| COc1c(-c2c(OC)c(OC)c3cc4oc(C)cc(=O)c4c(OC)c3c2O)c(O)c2c(OC)c3c(=O)cc(C)oc3cc2c1OC | 1.02 |
| C[C@@H]1/C=C/CC(=O)OCCC(Oc2ccccc2)C(=O)N[C@@H](Cc2ccc(O)cc2)C(=O)N[C@@H]1/C=C/c1ccccc1 (stereo partly drawn) | 1.1 |
| CC(C)C1=NCCNC2=C1C(c1ccc3c(c1)OCO3)N(Cc1ccccc1)C2=O (stereo not drawn) | 0.911 |
| C#CCOC[C@@H](NC(=O)CC1(CNC(=O)c2cccc(/C=N/NS(=O)(=O)c3ccc(C)cc3)c2)CCCCC1)c1ccccc1 | 1.1 |
